# Test results as given in the supplement of paper PMC8728848.
# This is one part of the list.
# B1: HFR-1 (Triticum aestivum) (protein)
# chain: MSPQSFTLETTTTTPAAKGSDPSYFQSAPACHEMIQHKELLLHLYAYQNVQKTPDANQAVIVESKRPECFGILAANDWTVYDGPAHNANLVAHAQGLHLGASMAKENWFICFNMVFVNQRFTGSSFKVMGDFQGTAHNGEWAIVGGTGEFAYAQGVIAFKKTQQSERNARMELHVRAMCLSFLRPLLSLGDGSAVAKIGPWGKMSGELLDIPSTPQRLERITIRHGVVIDSLAFSFIDKAGEPYNVGPWGGRRGDNKDTIELAPSEIVTEVSGTVGIFAEDNVEYNAIASLTITTNHRPYGPFGETQSTPFSVPVQDNNNIVGFFACAGKYVEALGVYVRSPVST
# Experiments:
# Experiment in all cases: glycan array binding signal (z-score within array); higher = stronger binding
# Conditions in all cases: glycan notation: IUPAC condensed, linker removed
# [1] = target: GlcNAc(b1-3)[GlcNAc(b1-6)]GalNAc
# How it was run: (§1)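 From the Consortium for Functional Glycomics database, 3228 arrays were curated, keeping only those whose protein sequence was available. Binding is given as a within-array Z-score averaged across arrays sharing a protein sequence and across linkers. Negative Z-scores can be read as non-binding.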
# [2] = target: GlcNAc(b1-4)Gal(b1-4)GlcNAc
# How it was run: as §1
# GlcNAc(b1-4)GlcNAc = target: GlcNAc(b1-4)GlcNAc
# How it was run: as §1
# [3] = target: GlcNAc(b1-4)GlcNAc(b1-4)GlcNAc
# How it was run: as §1
# [4] = target: GlcNAc(b1-4)GlcNAc(b1-4)GlcNAc(b1-4)GlcNAc(b1-4)GlcNAc
# How it was run: as §1
# [5] = target: GlcNAc(b1-4)GlcNAc(b1-4)GlcNAc(b1-4)GlcNAc(b1-4)GlcNAc(b1-4)GlcNAc
# How it was run: as §1
# [6] = target: GlcNAc(b1-4)[GlcNAc(b1-6)]GalNAc
# How it was run: as §1
# [7] = target: GlcNAc(b1-6)Gal(b1-4)GlcNAc
# How it was run: as §1
# GlcNAc(b1-6)GalNAc = target: GlcNAc(b1-6)GalNAc
# How it was run: as §1
# GlcNAc3Prop(b1-4)GlcNAc = target: GlcNAc3Prop(b1-4)GlcNAc
# How it was run: as §1
# Kdn(a2-3)Gal(b1-3)GlcNAc = target: Kdn(a2-3)Gal(b1-3)GlcNAc
# How it was run: as §1
# Kdn(a2-3)Gal(b1-4)GlcNAc = target: Kdn(a2-3)Gal(b1-4)GlcNAc
# How it was run: as §1
# [8] = target: Man(a1-2)Man(a1-2)Man(a1-3)Man
# How it was run: as §1
# [9] = target: Man(a1-2)Man(a1-2)Man(a1-6)[Man(a1-3)]Man
# How it was run: as §1
# Man(a1-2)Man(a1-3)Man = target: Man(a1-2)Man(a1-3)Man
# How it was run: as §1
# [10] = target: Man(a1-2)Man(a1-3)[Man(a1-2)Man(a1-6)]Man
# How it was run: as §1
# [11] = target: Man(a1-2)Man(a1-3)[Man(a1-2)Man(a1-6)]Man(a1-6)[Man(a1-2)Man(a1-2)Man(a1-3)]Man
# How it was run: as §1
# [12] = target: Man(a1-2)Man(a1-3)[Man(a1-2)Man(a1-6)]Man(a1-6)[Man(a1-2)Man(a1-2)Man(a1-3)]Man(b1-4)GlcNAc(b1-4)GlcNAc
# How it was run: as §1
# [13] = target: Man(a1-2)Man(a1-3)[Man(a1-6)]Man(a1-6)[Man(a1-2)Man(a1-3)]Man(b1-4)GlcNAc(b1-4)GlcNAc
# How it was run: as §1
# [14] = target: Man(a1-2)Man(a1-6)[Man(a1-3)]Man(a1-6)[Man(a1-2)Man(a1-2)Man(a1-3)]Man
# How it was run: as §1
# [15] = target: Man(a1-2)Man(a1-6)[Man(a1-3)]Man(a1-6)[Man(a1-2)Man(a1-2)Man(a1-3)]Man(b1-4)GlcNAc(b1-4)GlcNAc
# How it was run: as §1
# Man(a1-3)[Man(a1-6)]Man = target: Man(a1-3)[Man(a1-6)]Man
# How it was run: as §1
# [16] = target: Man(a1-3)[Man(a1-6)]Man(a1-6)[Man(a1-2)Man(a1-3)]Man(b1-4)GlcNAc(b1-4)GlcNAc
# How it was run: as §1
# [17] = target: Man(a1-3)[Man(a1-6)]Man(a1-6)[Man(a1-3)]Man
# How it was run: as §1
# [18] = target: Man(a1-3)[Man(a1-6)]Man(a1-6)[Man(a1-3)]Man(b1-4)GlcNAc(b1-4)GlcNAc
# How it was run: as §1
# [19] = target: Man(a1-3)[Man(a1-6)]Man(b1-4)GlcNAc(b1-4)GlcNAc
# How it was run: as §1
# Man(a1-6)Man = target: Man(a1-6)Man
# How it was run: as §1
# Man(b1-4)GlcNAc = target: Man(b1-4)GlcNAc
# How it was run: as §1
# Neu5Ac(a2-3)Gal = target: Neu5Ac(a2-3)Gal
# How it was run: as §1
# [20] = target: Neu5Ac(a2-3)Gal(b1-3)GalNAc
# How it was run: as §1
# [21] = target: Neu5Ac(a2-3)Gal(b1-3)GalNAc(b1-3)Gal(a1-4)Gal(b1-4)Glc
# How it was run: as §1
# [22] = target: Neu5Ac(a2-3)Gal(b1-3)GalNAc(b1-3)Gal(b1-4)GlcNAc
# How it was run: as §1
# [23] = target: Neu5Ac(a2-3)Gal(b1-3)GalNAc(b1-4)[Neu5Ac(a2-3)]Gal(b1-4)Glc
# How it was run: as §1
# [24] = target: Neu5Ac(a2-3)Gal(b1-3)GalNAc6S
# How it was run: as §1
# [25] = target: Neu5Ac(a2-3)Gal(b1-3)GlcNAc
# How it was run: as §1
# [26] = target: Neu5Ac(a2-3)Gal(b1-3)GlcNAc(b1-3)Gal(b1-3)GlcNAc
# How it was run: as §1
# [27] = target: Neu5Ac(a2-3)Gal(b1-3)GlcNAc6S
# How it was run: as §1
# [28] = target: Neu5Ac(a2-3)Gal(b1-3)[Fuc(a1-4)]GlcNAc
# How it was run: as §1
binder,measurement,setting,value
B1,glycan array binding signal (z-score),[1],-0.19
same,glycan array binding signal (z-score),[2],-0.234
same,glycan array binding signal (z-score),GlcNAc(b1-4)GlcNAc,-0.156
same,glycan array binding signal (z-score),[3],-0.22
same,glycan array binding signal (z-score),[4],-0.185
same,glycan array binding signal (z-score),[5],-0.164
same,glycan array binding signal (z-score),[6],-0.229
same,glycan array binding signal (z-score),[7],-0.189
same,glycan array binding signal (z-score),GlcNAc(b1-6)GalNAc,0.023
same,glycan array binding signal (z-score),GlcNAc3Prop(b1-4)GlcNAc,-0.189
same,glycan array binding signal (z-score),Kdn(a2-3)Gal(b1-3)GlcNAc,-0.2
same,glycan array binding signal (z-score),Kdn(a2-3)Gal(b1-4)GlcNAc,-0.228
same,glycan array binding signal (z-score),[8],-0.193
same,glycan array binding signal (z-score),[9],-0.227
same,glycan array binding signal (z-score),Man(a1-2)Man(a1-3)Man,-0.113
same,glycan array binding signal (z-score),[10],-0.09
same,glycan array binding signal (z-score),[11],-0.213
same,glycan array binding signal (z-score),[12],0.005
same,glycan array binding signal (z-score),[13],4.19
same,glycan array binding signal (z-score),[14],-0.214
same,glycan array binding signal (z-score),[15],-0.076
same,glycan array binding signal (z-score),Man(a1-3)[Man(a1-6)]Man,4.93
same,glycan array binding signal (z-score),[16],6.43
same,glycan array binding signal (z-score),[17],7.26
same,glycan array binding signal (z-score),[18],7.87
same,glycan array binding signal (z-score),[19],5.48
same,glycan array binding signal (z-score),Man(a1-6)Man,2.03
same,glycan array binding signal (z-score),Man(b1-4)GlcNAc,-0.226
same,glycan array binding signal (z-score),Neu5Ac(a2-3)Gal,-0.215
same,glycan array binding signal (z-score),[20],-0.162
same,glycan array binding signal (z-score),[21],-0.229
same,glycan array binding signal (z-score),[22],-0.229
same,glycan array binding signal (z-score),[23],-0.223
same,glycan array binding signal (z-score),[24],-0.218
same,glycan array binding signal (z-score),[25],-0.207
same,glycan array binding signal (z-score),[26],-0.219
same,glycan array binding signal (z-score),[27],-0.033
same,glycan array binding signal (z-score),[28],-0.221
